Screen size: about 310,000 compounds; about 2,200 (0.71%) showed an effect of 50% or more. Effects have a minus sign here. Some of the results follow.
Target: human ether-à-go-go-related gene (hERG) potassium channel (human, UniProt Q12809)
Experiment: primary screen, population patch clamp on CHO cells stably expressing hERG

Chain of human ether-à-go-go-related gene (hERG) potassium channel (Q12809 whole entry, looked up): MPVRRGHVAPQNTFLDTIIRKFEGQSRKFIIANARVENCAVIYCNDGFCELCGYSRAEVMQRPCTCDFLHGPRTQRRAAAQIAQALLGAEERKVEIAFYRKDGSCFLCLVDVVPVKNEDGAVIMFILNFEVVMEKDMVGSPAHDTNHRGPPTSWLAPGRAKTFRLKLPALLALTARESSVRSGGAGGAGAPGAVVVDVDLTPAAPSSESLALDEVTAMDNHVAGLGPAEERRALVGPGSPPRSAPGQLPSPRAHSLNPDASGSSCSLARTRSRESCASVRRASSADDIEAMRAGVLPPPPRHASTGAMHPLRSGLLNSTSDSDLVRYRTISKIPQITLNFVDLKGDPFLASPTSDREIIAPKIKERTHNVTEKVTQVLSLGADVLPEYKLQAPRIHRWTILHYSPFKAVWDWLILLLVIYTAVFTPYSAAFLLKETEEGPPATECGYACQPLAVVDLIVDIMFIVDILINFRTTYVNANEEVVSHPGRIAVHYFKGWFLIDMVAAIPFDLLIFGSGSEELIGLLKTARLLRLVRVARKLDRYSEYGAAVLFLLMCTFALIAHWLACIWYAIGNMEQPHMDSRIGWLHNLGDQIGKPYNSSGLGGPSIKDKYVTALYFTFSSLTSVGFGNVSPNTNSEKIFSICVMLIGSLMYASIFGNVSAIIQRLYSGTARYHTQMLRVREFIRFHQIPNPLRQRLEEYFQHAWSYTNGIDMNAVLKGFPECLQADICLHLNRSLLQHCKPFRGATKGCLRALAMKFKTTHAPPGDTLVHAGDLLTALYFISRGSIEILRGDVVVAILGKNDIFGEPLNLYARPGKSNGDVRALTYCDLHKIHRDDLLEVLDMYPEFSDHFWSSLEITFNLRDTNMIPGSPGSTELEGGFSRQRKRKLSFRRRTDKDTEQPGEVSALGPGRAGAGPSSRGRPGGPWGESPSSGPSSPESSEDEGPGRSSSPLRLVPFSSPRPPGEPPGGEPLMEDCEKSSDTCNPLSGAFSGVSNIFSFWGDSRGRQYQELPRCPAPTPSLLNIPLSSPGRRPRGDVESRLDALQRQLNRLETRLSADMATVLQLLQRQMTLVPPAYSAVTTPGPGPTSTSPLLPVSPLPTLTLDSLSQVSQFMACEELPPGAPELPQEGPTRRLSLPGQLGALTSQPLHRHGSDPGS

Compound	hERG current change (%, negative = inhibition) at 1uM [%]
Cn1nnnc1SCCNC/C=C/c1ccccc1	-5.29
O=C(COc1ccccc1)Nn1c(-c2ccccc2)nc2ccccc2c1=O	4.07
O=C(Nc1cccc(-c2cn3c(n2)SCC3)c1)c1ccc(Br)o1	8.25
Cc1ccc(NC(=O)C(C)N2C(=O)C3C4CC(C(Br)C4Br)C3C2=O)cc1 (centres unmarked)	9.48
O=C1Nc2ccc(Br)cc2C1(O)Cc1ccncc1 (centres unmarked)	-4.91
CC(=O)c1ccc(S(=O)(=O)NCc2ccc(C(=O)NCC(c3ccccc3)N(C)C)cc2)cc1 (centres unmarked)	11.3
CC(CNC(=O)CCC(=O)N1CCOc2ccccc21)c1ccccc1 (centres unmarked)	7.67
CC12C(=O)N(Cc3ccccc3)C(=O)C1C1C=CC2C1 (centres unmarked)	4.13
CC(C)(C)c1ccc(C(=O)/C(C#N)=C/c2cccs2)cc1	15
CCOC(=O)/C=C1\SCC(=O)N1CC(=O)NC12CC3CC(CC(C3)C1)C2	9.49
Cc1cc(OC(C)C(=O)NCc2cccnc2)c2c(C)c(C)c(=O)oc2c1 (centres unmarked)	15.4
CC1CCCN(C(=O)C(C)Nc2cc(Cl)ccc2N2CCOCC2)C1 (centres unmarked)	2.8
CCCCN(C(=O)c1cc2c(s1)CCC2)c1c(N)n(CCCC)c(=O)[nH]c1=O	8.6
O=[N+]([O-])c1ccccc1NCCNc1ncc(C(F)(F)F)cc1Cl	-6.55
Nc1ccc(-c2nc3ncccc3o2)c(Cl)c1	-4.25
N#CCc1nn(-c2ccc(F)cc2)c(N)c1C#N	4.17
O=C(NCC1CCCO1)c1ccc(N2C(=O)C3CCCCC3C2=O)cc1 (centres unmarked)	6.45
NC(=O)CCN1CCN(C(=O)c2ccc3nc(Cc4cccc(Cl)c4)oc3c2)CC1	-0.116
Cc1cc(C)n(CC2CC(=O)N(c3cc(Cl)cc(Cl)c3)C2=O)n1 (centres unmarked)	6.63
CCN(CCCNC(=O)C1CCN(S(=O)(=O)c2c(C)[nH]c(=O)[nH]c2=O)CC1)c1cccc(C)c1	7.52
COCC(C)Nc1ccc(S(=O)(=O)N2CCCC2)cc1[N+](=O)[O-] (centres unmarked)	8.38
CNC(=O)c1ccc(-c2sc3nc(N4CCOCC4)c4c(c3c2N)CCCC4)o1	-8.43
Cl.O=S(=O)(c1cccc2cnccc12)N1CCCNCC1	18.1

Compound	hERG current change (%, negative = inhibition) at 1uM [%]
CCOc1ccc(CNCCCSc2ncccn2)cc1	-13.8
CC(Oc1cccc(F)c1)c1ccnc2nc(/N=C/N(C)C)nn12 (centres unmarked)	14.4
CCCn1nnc(NC(=O)c2ccc(F)cc2)n1	3.27
O=C(CN1C(=O)C2C3CC(C(Br)C3Br)C2C1=O)N1CCN(Cc2ccccc2)CC1 (centres unmarked)	7.23
CCOc1ccc(S(=O)(=O)N(C)CC(=O)NCc2ccccn2)cc1	10.7
COc1ccccc1CNCC(=O)Nc1cc(S(=O)(=O)N2CCOCC2)ccc1Cl	10.1
Cn1ccnc1SCC(=O)Nc1cc(S(=O)(=O)N2CCOCC2)ccc1Cl	5.52
CC(C)C(=O)NS(=O)(=O)c1ccc(N)cc1	11.9
S=c1[nH]nc(C2CCCCC2)n1/N=C/c1ccccc1Cl	13.7
CCCCn1c(N)c(N(CCC(C)C)C(=O)CSc2nnc(Nc3ccccc3)s2)c(=O)[nH]c1=O	3.44
COC(=O)C1=COC(C)C2CN3CCc4c([nH]c5ccccc45)C3CC12 (centres unmarked)	9.77
O=C(O)/C=C/C(=O)NNC(=O)c1ccccc1Br	8.31
COc1ccc(OCC(=O)NNC(=S)NC(=O)C2CC2)cc1	5.94
O=C1Cc2ccccc2N1c1ccccc1	-9.54
O=C1CC(=O)Nc2cc(S(=O)(=O)Nc3ccc(Cl)c(C(F)(F)F)c3)ccc2N1	18.7
O=C(O)c1ccc(CSc2nnc(-c3ccncc3)n2-c2ccc(Cl)cc2)cc1	8.8
O=S1(=O)NC(=NCCc2ccccn2)c2ccccc21	8.25
CC(C)(C)OC(=O)N1CCC(CC2CC(c3ccccc3)=NO2)(C(=O)O)CC1 (centres unmarked)	13.7
Cn1c(SCC(=O)NCc2ccc3c(c2)OCO3)nc2c(c1=O)SCC2	2.48
COc1ccc(CNC(=O)C2CCN(S(=O)(=O)N3CC(C)CC(C)C3)CC2)cc1 (centres unmarked)	12.7
CCOc1ccc(NS(=O)(=O)c2c(C(=O)N3CCCCCC3)c(C)n(C)c2C)cc1	7.46
O=[N+]([O-])c1ccc(CSc2nnc(Cc3ccccc3)n2-c2ccc(F)cc2)cc1	10.8
CC1(C)Oc2ccc3ccc(=O)oc3c2[C@@H](O)[C@H]1O	10.3

Compound	hERG current change (%, negative = inhibition) at 1uM [%]
CC(=O)N/C(=C\c1ccccc1)C(=O)OC(C)C(=O)Nc1ccccc1F (centres unmarked)	5.92
Cc1ccc(N2C(=O)[C@@H]3[C@H](C2=O)C2c4ccccc4C=CN2[C@@H]3C(=O)c2ccco2)c(C)c1 (some centres unmarked)	3.42
COc1ccccc1-c1nc2cc3ccccc3cc2nc1-c1ccccc1	1.04
O=C(NCCO)c1ccc2[nH]c3c(c2c1)CCCC3	2.58
CCC1(CC)NC(=O)N(CC(=O)OC(C)C(=O)Nc2cc([N+](=O)[O-])ccc2OC)C1=O (centres unmarked)	6.25
Cc1c(C(=O)N(C)CCC#N)oc2ccc(S(=O)(=O)N3CC(C)CC(C)C3)cc12 (centres unmarked)	2.4
COc1ccc(Cl)cc1NC(=O)Nc1cc(C)on1	8.52
Cl.O=C(CC12CC3CC(CC(C3)C1)C2)NCC(c1ccc(F)cc1)N1CCOCC1 (centres unmarked)	12.5
CC1CCc2c(C(=O)NCc3ccco3)csc2C1 (centres unmarked)	6.16
Cc1cc(C)c2c(N)c(C(=O)NC3CCCC3)sc2n1	13.9
COc1ccc(-c2cc(-c3ccccc3)nc(SCC(=O)Nc3nccs3)c2C#N)cc1	4.16
COCc1cc(C)nc(OCC(=O)N/N=C/c2ccc(O)cc2O)c1C#N	-1.29
O=C(COC(=O)c1cccc(Cl)c1)NCCN1C(=O)CSC1=O	14.3
CCN(CC)C(CNC(=O)c1cc(=O)[nH]c2ccccc12)c1ccccc1Cl (centres unmarked)	7.59
O=c1c([N+](=O)[O-])cccn1Cc1cccc(Cl)c1	4.46
CC(=O)c1c(C)nc(-c2ccccc2)nc1N	21
CC(C)OC(=O)n1c(=S)oc2ccccc21	10.9
N#Cc1ccc(OCC(=O)Nc2ccc(N3CCCC3)cc2)cc1	-0.546
COc1ccc2c(CC(=O)Nc3ccc(OC)nc3)coc2c1	9.62
CC(C)C(=O)NN(C(=O)c1ccccc1)c1ccccc1	10.6
CCCC(=O)Nc1ccccc1NC(=O)c1ccc(OC)cc1	10.5
CCCc1nn(C)c(C(=O)Nc2ccccc2)c1Cl	8.22
CN1CCN(CCOCCOc2c(Cl)cc(Cl)cc2Cl)CC1.O=C(O)C(=O)O	6.34

Compound	hERG current change (%, negative = inhibition) at 1uM [%]
Cc1cc(C)c(S(C)(=O)=O)c(Oc2cccc(Cl)c2)n1	10.2
COc1ccc(-c2cc(C(=O)N3CCCC3)no2)cc1OC	3.94
CCCCN(C)C(=O)c1nc2ccccn2c1CNCCCn1nnc2ccccc21	4.46
CCNc1c(NS(=O)(=O)c2ccc(Cl)s2)c(=O)oc2ccccc12	7.19
NC(=O)c1ccc(SCC(=O)NC2CCCCC2)c([N+](=O)[O-])c1	10.4
CCOC(=O)c1c(C)n(-c2ccc(C)cc2)c2ccc(O)c(CN(C)C)c12.Cl	-23.2
CCOC(=O)C1=C(C)NC(=S)NC1c1ccc(OCC(=O)N2CCCCCC2)c(OC)c1 (centres unmarked)	12.6
CCOC(=O)c1nnc(-c2ccc(C)cc2)nc1Oc1ccccc1Cl	6.33
Cc1ccnc(NC(=O)Nc2ccc(Br)cc2Cl)c1	9.54
O=C1CN=C(c2ccc(Cl)cc2)c2oc3ccccc3c2N1	12.8
O=C(COc1cccc([N+](=O)[O-])c1)N/N=C/c1ccco1	4.53
C=CC(C)(O)CCCC(C)CCCC(C)CCCC(C)C (centres unmarked)	12.2
CN(C)S(=O)(=O)N(CC(=O)Nc1ccc2ccccc2c1)c1ccccc1	11.2
CCN(CC)c1ccc(C2C(C(=O)OC(C)C)C(=O)CC(C)(O)C2C(=O)OC(C)C)cc1 (centres unmarked)	13.2
COC(=O)c1sccc1NC(=O)Nc1cc(C)ccc1OC	9.54
CNC(=O)NC1CCCCc2sccc21 (centres unmarked)	-5.59
Cc1ccc(C(=O)N2N=C(c3cccc(NS(C)(=O)=O)c3)CC2c2cccs2)cc1 (centres unmarked)	6.05
Cc1ccc(Cn2c(N3CCNCC3)nc3c2c(=O)[nH]c(=O)n3C)cc1	14
CCCCNC(=O)/C=C/c1ccc(OC)c(Br)c1	7.5
OCCCn1c(C2CCCN2c2nc(-c3ccc(Cl)cc3)cs2)nc2cc(C(F)(F)F)ccc21 (centres unmarked)	2.89
